The data set concerns the molecule itself. As to the kind of experiment: crystal structure; Hfq65 mixed with ATP 1:1 with respect to one subunit; crystal grown in 0.1 M Hepes pH ~7.5, 10% (w/v) PEG-8000, 8% (v/v) ethylene glycol; space group C2, six molecules in the asymmetric unit forming the hexamer.

B1: C-terminally truncated variant of E. coli Hfq (Hfq65), […] (domain or fragment)
chain: not shown
notes: Hfq (host factor I/Q), Escherichia coli, […] (C-terminally truncated); Crystallised with ATP (1:1 molar ratio per subunit); ATP seen in four of the six R-sites; also called host factor I/Q; source: E. coli strain AM111F' harbouring plasmid pUHfq65, purified (heat-fractionation, HIC, anion-exchange chromatography)
By stoichiometry N is commonly meant a count of units in the complex or per binding partner. For B1, the “stoichiometry N” value came out at 6.

For the origin of these results see PMC3511402, “Structural and Biochemical Studies on ATP Binding and Hydrolysis by the Escherichia coli RNA Chaperone Hfq” (PLoS ONE, 2012).
